For 195 variants, enrichment ratio results are on record in a collection of fitness landscapes (doi:10.1126/science.1257360).

The list shows a part of the results. Bounds are passed on as bounds.

B1: PhoQ; a variant is named by its letters at X, in order, P23837 (parent)
chain: MKKLLRLFFPLSLRVRFLLATAAVVLVLSLAYGMVALIGYSVSFDKTTFRLLRGESNLFYTLAKWENNKLHVELPENIDKQSPTMTLIYDENGQLLWAQRDVPWLMKMIQPDWLKSNGFHEIEADVNDTSLLLSGDHSIQQQLQEVREDDDDAEMTHSVAVNVYPATSRMPKLTIVVVDTIPVELKSSYMVWSWFIYVLSANLLLVIPLLWVAAWWSLRPIEALAKEVRELEEHNRELLNPATTRELTSLVRNLNRLLKSERERYDKYRTTLTDLTHSLKTPLXXLQXXLRSLRSEKMSVSDAEPVMLEQISRISQQIGYYLHRASMRGGTLLSRELHPVAPLLDNLTSALNKVYQRKGVNISLDISPEISFVGEQNDFVEVMGNVLDNACKYCLEFVEISARQTDEHLYIVVEDDGPGIPLSKREVIFDRGQRVDTLRPGQGVGLAVAREITEQYEGKIVAGESMLGGARMEVIFGRQHSAPKDE

The experiment covers variants of B1. The experiment is described as follows: enrichment ratio after two sorts for PhoP signalling (ratio (wild type AVST 3.29)); higher = more functional. The note with it: with PhoP (E. coli).
As for SISL, the enrichment ratio was 10.9.

With FWHS, the enrichment ratio was no more than 0.25. For IPPE, the enrichment ratio was no more than 0.25.

In the case of SDHE, the enrichment ratio was determined as 0.709.

As for QIDC, the enrichment ratio is no more than 0.25.

Consider YLQF, for which the enrichment ratio is no more than 0.25.

PLAW: the enrichment ratio was no more than 0.25. With GNAD the figure was no more than 0.25; with RNMH, no more than 0.25.

As to EFVF, the enrichment ratio was no more than 0.25. The same measure for VAGN: no more than 0.25; for INDH: no more than 0.25. The same measure for SVDQ: no more than 0.25. On to LEMF, for which the enrichment ratio was no more than 0.25. The same measure for MSQY: 1.53. The same measure for NKWE: no more than 0.25. GNQY: the enrichment ratio is no more than 0.25. With PHHK the figure was no more than 0.25. With VFTN the figure was 0.47; with WSWP, no more than 0.25; with FYRA, no more than 0.25. With SGRP the figure was no more than 0.25; with AWWI, no more than 0.25. Take VKFE: the enrichment ratio is no more than 0.25.

For DASG, the enrichment ratio was no more than 0.25. With SEKK the figure was no more than 0.25; with TQVL, 7.43; with MDLE, no more than 0.25. On to IFKS, for which the enrichment ratio is no more than 0.25. The same measure for PSAP: no more than 0.25. The same measure for IEPS: no more than 0.25; for SDKT: no more than 0.25. With GWHA the figure was no more than 0.25; with VQGQ, no more than 0.25.

Turning to SGPF, the enrichment ratio is no more than 0.25.

Turning to TKNG, the enrichment ratio was determined as 2.72. The same measure for HVGD: no more than 0.25.

On to ICQF, for which the enrichment ratio was no more than 0.25. With TIRY the figure was no more than 0.25. Regarding MTDE, the enrichment ratio was no more than 0.25. The same measure for NKYN: no more than 0.25. The same measure for ESRG: no more than 0.25; for YCTK: no more than 0.25; for AKIA: 2.13.

LNDH: the enrichment ratio was no more than 0.25. With GWIY the figure was no more than 0.25.

As for KTWI, the enrichment ratio was no more than 0.25.

On to PPRC, for which the enrichment ratio is no more than 0.25. The same measure for LWAV: no more than 0.25. In the case of RIQN, the enrichment ratio was no more than 0.25. With IFTC the figure was no more than 0.25. With PRLL the figure was no more than 0.25; with HIQM, no more than 0.25. The same measure for FKLM: 9.2; for MYGI: no more than 0.25. With QEIN, the enrichment ratio is no more than 0.25.

For VQAS, the enrichment ratio was no more than 0.25.

Turning to PYFH, the enrichment ratio was no more than 0.25.

Turning to FQVA, the enrichment ratio is no more than 0.25.

Regarding MISD, the enrichment ratio is no more than 0.25. As to PTSH, the enrichment ratio was no more than 0.25. With HHVI the figure was no more than 0.25; with KYPP, no more than 0.25. The same measure for VRMA: no more than 0.25; for KEDS: no more than 0.25.

In the case of DNGD, the enrichment ratio was no more than 0.25. With TESA the figure was 11.7. As to NWRW, the enrichment ratio was no more than 0.25. As to PPGV, the enrichment ratio was no more than 0.25. Consider RLFD, for which the enrichment ratio was no more than 0.25. For the variant VTLP, the enrichment ratio was no more than 0.25. The same measure for LCEW: no more than 0.25; for RLFI: no more than 0.25. With WWAP, the enrichment ratio was no more than 0.25. The same measure for YIWE: no more than 0.25.

Regarding SYIN, the enrichment ratio is no more than 0.25.

As to RLDS, the enrichment ratio was no more than 0.25. The same measure for LWGC: no more than 0.25; for FAID: no more than 0.25; for DYWP: no more than 0.25.

Take LRGR: the enrichment ratio was no more than 0.25. With LWDV the figure was no more than 0.25. The same measure for FCSV: no more than 0.25; for LPTA: no more than 0.25; for MLPE: no more than 0.25. With RHEI the figure was no more than 0.25; with FALL, 16.3; with PMQA, no more than 0.25. With RMRQ, the enrichment ratio was no more than 0.25. Regarding EPRN, the enrichment ratio is no more than 0.25. The same measure for WKGT: no more than 0.25; for CVSH: no more than 0.25; for IRYE: no more than 0.25.

Turning to GFLQ, the enrichment ratio was no more than 0.25. With DTPK the figure was no more than 0.25; with HTTN, no more than 0.25. With LWNR the figure was no more than 0.25.

On to GGRF, for which the enrichment ratio is no more than 0.25. With DYHF the figure was no more than 0.25; with FPIC, no more than 0.25. The same measure for DFLN: no more than 0.25; for GLKA: no more than 0.25.

For HRLN, the enrichment ratio was no more than 0.25. On to QPGV, for which the enrichment ratio is no more than 0.25. The same measure for QQFR: no more than 0.25; for MCPA: no more than 0.25. With ASGV the figure was 7.94; with TNTY, no more than 0.25. The same measure for KKGI: no more than 0.25; for PLRF: no more than 0.25.

Take EMMG: the enrichment ratio is no more than 0.25. With LERT the figure was no more than 0.25; with YPFK, no more than 0.25; with KGPR, no more than 0.25. Consider LCAN, for which the enrichment ratio was no more than 0.25. With RDIC the figure was no more than 0.25; with RACI, no more than 0.25. With QLLE the figure was no more than 0.25; with TNEW, no more than 0.25; with TRTS, no more than 0.25.

Consider MYPW, for which the enrichment ratio is no more than 0.25. The same measure for LPYP: no more than 0.25. With FRTM the figure was no more than 0.25; with VWKF, no more than 0.25; with WGGN, no more than 0.25. The same measure for LRNI: no more than 0.25; for VQAC: no more than 0.25; for WVWN: no more than 0.25. For LSNV, the enrichment ratio was no more than 0.25. With KCHY the figure was no more than 0.25; with PRPW, no more than 0.25; with GDSF, no more than 0.25. On to FTYV, for which the enrichment ratio was no more than 0.25. In the case of IGIV, the enrichment ratio is no more than 0.25. For the variant VFEN, the enrichment ratio is no more than 0.25.

VPWS: the enrichment ratio was no more than 0.25.

Turning to WLFC, the enrichment ratio was no more than 0.25.

For the variant MCLI, the enrichment ratio was determined as 4.17.

As for PSIV, the enrichment ratio is no more than 0.25. The same measure for STRG: no more than 0.25; for SYNR: no more than 0.25. Consider IDVH, for which the enrichment ratio is no more than 0.25. The same measure for MQDA: no more than 0.25; for RDAT: no more than 0.25; for SWCI: no more than 0.25.

Turning to ENHK, the enrichment ratio was no more than 0.25. With NGNY the figure was no more than 0.25; with KKQM, no more than 0.25. For YCGP, the enrichment ratio is no more than 0.25.

For DDVT, the enrichment ratio was no more than 0.25.

Regarding SNSG, the enrichment ratio was determined as 10.7. The same measure for MVYF: 2.36; for IHFH: no more than 0.25.

In the case of VVLT, the enrichment ratio is no more than 0.25. The same measure for SECE: 15.4.

On to NLAS, for which the enrichment ratio was no more than 0.25.

Consider YWCT, for which the enrichment ratio is no more than 0.25. The same measure for SYRM: no more than 0.25; for RFMW: no more than 0.25. As to NPSP, the enrichment ratio was no more than 0.25. The same measure for IVCN: no more than 0.25; for RTRE: no more than 0.25. Take DNAL: the enrichment ratio is no more than 0.25.

In the case of HCKY, the enrichment ratio was no more than 0.25. As to HVCL, the enrichment ratio was no more than 0.25. With TCDM the figure was no more than 0.25. With EVCW the figure was no more than 0.25.

Consider GVRQ, for which the enrichment ratio is no more than 0.25.

In the case of KDAF, the enrichment ratio is no more than 0.25. With IMED the figure was no more than 0.25; with NAMR, no more than 0.25. The same measure for RIDI: no more than 0.25.

Consider YVAF, for which the enrichment ratio came out at 0.382. The same measure for LDPQ: no more than 0.25; for FVDK: no more than 0.25; for PSFM: no more than 0.25.

Take VHID: the enrichment ratio was no more than 0.25. Regarding RRFK, the enrichment ratio is no more than 0.25. With TPMN, the enrichment ratio is no more than 0.25.

With LDMR, the enrichment ratio is no more than 0.25. The same measure for PLPP: no more than 0.25; for PTNI: no more than 0.25. Consider VADY, for which the enrichment ratio is no more than 0.25. With AYWW the figure was no more than 0.25. With RHPF the figure was no more than 0.25; with KDQQ, no more than 0.25; with GQGK, no more than 0.25.

For the variant AMFN, the enrichment ratio is no more than 0.25. As for HEKI, the enrichment ratio was no more than 0.25. With VFAP the figure was no more than 0.25. As for LIHS, the enrichment ratio is no more than 0.25. Regarding NNWH, the enrichment ratio was no more than 0.25. With FDRH the figure was 0.281; with TETG, 35.8; with LTPC, no more than 0.25.
